Our source for the EC50 values is patent US20120302598A1, “IMIDAZOPYRIDINONES” (PFIZER LIMITED, priority 2007, published 2012).

Structures are written as SMILES. For part of its entries the source gives two or more results. They are shown here; other results are not. There may be further records. Values that stand side by side seem to repeat one measurement; one of them may be the mean.

The experiment deals with T1, TLR7 (Homo sapiens, UniProt Q9NYK1).
T1 construct: PBL contain as a subpopulation plasmacytoid dendritic cells which are the natural interferon producing cells; endogenous in cells; host or cells: peripheral blood lymphocytes (PBL), containing plasmacytoid dendritic cells
T1 sequence (Q9NYK1 27-1049): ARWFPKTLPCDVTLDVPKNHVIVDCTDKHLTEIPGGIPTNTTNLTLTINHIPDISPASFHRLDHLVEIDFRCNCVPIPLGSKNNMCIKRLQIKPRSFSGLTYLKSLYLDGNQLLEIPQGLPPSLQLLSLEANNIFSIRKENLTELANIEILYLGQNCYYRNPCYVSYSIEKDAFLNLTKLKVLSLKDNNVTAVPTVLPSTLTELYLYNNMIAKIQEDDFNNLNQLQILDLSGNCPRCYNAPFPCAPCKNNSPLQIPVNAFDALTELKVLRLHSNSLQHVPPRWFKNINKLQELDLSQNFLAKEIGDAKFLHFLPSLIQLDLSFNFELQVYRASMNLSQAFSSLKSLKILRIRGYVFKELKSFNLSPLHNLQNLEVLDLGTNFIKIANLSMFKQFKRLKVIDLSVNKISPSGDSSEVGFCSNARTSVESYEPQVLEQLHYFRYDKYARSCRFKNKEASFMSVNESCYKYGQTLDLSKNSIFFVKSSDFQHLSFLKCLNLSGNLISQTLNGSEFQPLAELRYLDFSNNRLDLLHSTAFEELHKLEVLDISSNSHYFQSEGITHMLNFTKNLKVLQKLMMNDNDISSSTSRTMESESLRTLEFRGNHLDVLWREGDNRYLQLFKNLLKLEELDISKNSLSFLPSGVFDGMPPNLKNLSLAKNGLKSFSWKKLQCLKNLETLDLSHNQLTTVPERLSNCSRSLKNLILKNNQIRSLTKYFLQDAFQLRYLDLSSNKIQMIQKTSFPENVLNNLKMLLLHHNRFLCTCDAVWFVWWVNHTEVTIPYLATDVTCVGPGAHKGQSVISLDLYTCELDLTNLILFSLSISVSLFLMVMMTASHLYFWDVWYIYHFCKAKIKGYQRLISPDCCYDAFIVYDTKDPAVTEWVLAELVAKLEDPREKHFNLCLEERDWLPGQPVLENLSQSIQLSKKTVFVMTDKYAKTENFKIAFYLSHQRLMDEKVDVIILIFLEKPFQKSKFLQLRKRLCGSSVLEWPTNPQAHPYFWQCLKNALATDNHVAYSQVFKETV
Briefly: PBL/HCV replicon bioassay. Format: cell-based. The following applies: read-out: EC50 (nM) (n = no. of experiments). The source says: EMCV: Encephalomyocarditis virus IRES: Internal ribosmomal entry site Huh: Huh-7 human hepatoma cell line 7 (parental cells used to generate HCV replicon cell lines) IUC: luciferase ubi: ubiquitin neo: neomycin ET: glutamic acid, threonine (cell culture adaptive mutations in the replicon used in the assay) RPMI-FCS: Roswell Park Memorial Institute (cell culture medium for PBL)—Foetal Calf Serum PBL: peripheral blood lymphocytes
PBL contain as a subpopulation plasmacytoid dendritic cells which are the natural interferon producing cells during an infection and as such are an excellent model in which to profile interferon inducers. As an extremely sensitive antiviral bioassay, supernatant taken from PBL is assayed for antiviral activity in the HCV replicon system.
The HCV replicon (Huh-5-2[l389 luc-ubi-neo-NS3-3′/ET]) is an in vitro model of HCV replication in which the luciferase reporter is incorporated into HCV sequences and stably maintained in the human hepatoma cell line Huh-7. The firefly luciferase reporter is expressed as a luciferase-ubiquitin-neomycin phosphotransferase fusion protein which is cleaved by host proteases to release luciferase. […] Firefly luciferase activity is detected using a Bright-Glo™ Luciferase Assay System manufactured by Promega. […]

As usually defined, the EC50 is the concentration giving half of the maximal effect. Consider `Cc1ccc(Cn2c(=O)[nH]c3c(N)nc(OC[C@@H]4CCCO4)cc32)cn1` [Example 7, 4-Amino-1-(6-methyl-pyridin-3-ylmethyl)-6-(tetrahydro-furan-2-S-ylmethoxy)-1,3-dihydro-imidazo[4,5-c]pyridin-2-one], for which the EC50 was 54 nM, 60 nM, 91 nM, 40 nM, 1.24 µM, 913 nM, 3.42 µM [lines of one column].
